According to the supplement of paper PMC10369915:
The list shows a part of the results. No stated cut-off is given here; in the data, active = 3.2 or more and inactive = the rest. The signal is at background level for most entries.

Legend:
Test in all cases: enrichment score (SH2-bound / input frequency) (ratio); bacterial display of known human phosphotyrosine sites (pTyr-Var adds point mutants) read by sequencing; higher = stronger binding; tyrosines were phosphorylated by kinases first
Conditions in all cases: peptide library: pTyr-Var
SHP2 C-SH2 domain E139D = biological target: SHP2 C-SH2 domain E139D
[1] = biological target: SHP2 C-SH2 domain wild-type
SHP2 N-SH2 domain L43F = biological target: SHP2 N-SH2 domain L43F
SHP2 N-SH2 domain T42A = biological target: SHP2 N-SH2 domain T42A
SHP2 N-SH2 domain T52S = biological target: SHP2 N-SH2 domain T52S
[2] = biological target: SHP2 N-SH2 domain wild-type
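Further: displayed peptides selected on beads carrying the immobilized SH2 domain, with library peptides lacking any tyrosine serving as negative controls.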

Row | Binder | enrichment score (SHP2 C-SH2 domain E139D) | enrichment score [1] | enrichment score (SHP2 N-SH2 domain L43F) | enrichment score (SHP2 N-SH2 domain T42A) | enrichment score (SHP2 N-SH2 domain T52S) | enrichment score [2]
1 | LRNRVYEVPVE [SLC26A3_Y756] | inactive: 0.581 | inactive: 0.718 | inactive: 0.802 | inactive: 0.678 | inactive: 0.606 | inactive: 0.689
2 | ELQDDYEDMME [SLC4A1_Y8] | inactive: 0.527 | inactive: 0.457 | inactive: 0.461 | inactive: 0.563 | inactive: 0.412 | inactive: 0.474
3 | VDSIEYEVASQ [SLC7A7_Y7_T5I] | inactive: 0.709 | inactive: 0.557 | inactive: 0.547 | inactive: 0.522 | inactive: 0.531 | inactive: 0.687
4 | LLRFLYFFVCS [SLC34A2_Y109_G106R] | active: 3.64 | active: 3.57 | inactive: 2.92 | inactive: 2.33 | inactive: 2.98 | inactive: 2.72
5 | LFRFGYANTSE [SI_Y1233_C1229Y_YF] | inactive: 1.93 | inactive: 1.13 | inactive: 1.65 | inactive: 1.52 | inactive: 1.63 | inactive: 1.3
6 | FPHVIYARLWR [SMAD4_Y95] | inactive: 0.289 | inactive: 0.291 | inactive: 0.301 | inactive: 0.399 | inactive: 0.227 | inactive: 0.271
7 | ELAVNYQEQAS [SLC9A9_Y591_I589V] | inactive: 0.947 | inactive: 0.809 | inactive: 0.817 | inactive: 0.6 | inactive: 0.755 | inactive: 0.846
8 | YIIFIYAMKKK [SLCO1B1_Y645_L643F] | inactive: 1.92 | inactive: 1.22 | inactive: 1.36 | inactive: 1.16 | inactive: 1.75 | inactive: 1.11
9 | LRFDSYSSFCN [SLC20A2_Y433_YF] | inactive: 0.818 | inactive: 0.883 | inactive: 0.981 | inactive: 0.809 | inactive: 0.658 | inactive: 0.831
10 | QMWLKYSQSDL [SMC1A_Y714_R711W] | inactive: 2.16 | inactive: 1.13 | inactive: 1.66 | inactive: 1.16 | inactive: 1.48 | inactive: 1.42
11 | DSFWSYCNAVA [SLC20A2_Y436_S434W_YF] | inactive: 0.792 | inactive: 0.964 | inactive: 0.816 | inactive: 0.711 | inactive: 0.822 | inactive: 1.04
12 | KPLMPCMRYSR [SMARCE1_Y73_Y73C] | inactive: 0.26 | inactive: 0.232 | inactive: 0.174 | inactive: 0.237 | inactive: 0.288 | inactive: 0.231
13 | AKKVFYVIETR [SHH_Y253] | inactive: 2.13 | inactive: 2.07 | inactive: 2.04 | inactive: 1.93 | inactive: 2.41 | inactive: 2.12
14 | PSFSEYASVQV [SIRPA_Y496] | inactive: 0.962 | inactive: 1.08 | inactive: 0.857 | inactive: 0.837 | inactive: 1.28 | inactive: 0.825
15 | FGSVMYEFVGK [SLC18A1_Y251] | inactive: 1.56 | inactive: 1.32 | inactive: 1.17 | inactive: 0.929 | inactive: 1.26 | inactive: 1.55
16 | VYLGAYDHFLP [SLC22A5_Y486_R488H] | inactive: 1.77 | active: 3.52 | inactive: 1.47 | inactive: 2.3 | inactive: 1.75 | inactive: 1.64
17 | IYRAAYFGVYD [SLC25A4_Y191] | inactive: 0.972 | inactive: 1.03 | inactive: 1.03 | inactive: 0.8 | inactive: 0.887 | inactive: 1.03
18 | NNKKDYFDMFE [SLC26A3_Y526_K521N_YF] | inactive: 0.651 | inactive: 0.742 | inactive: 0.681 | inactive: 0.654 | inactive: 0.752 | inactive: 0.692
19 | LHQSTYQRFDV [SLC7A14_Y693_YF] | inactive: 0.826 | inactive: 0.799 | inactive: 0.934 | inactive: 0.881 | inactive: 0.829 | inactive: 1.06

Row | Binder | enrichment score (SHP2 C-SH2 domain E139D) | enrichment score [1] | enrichment score (SHP2 N-SH2 domain L43F) | enrichment score (SHP2 N-SH2 domain T42A) | enrichment score (SHP2 N-SH2 domain T52S) | enrichment score [2]
20 | LLREWYVQDPY [SIX3_Y225_L226V] | inactive: 1.81 | inactive: 1.69 | inactive: 1.58 | inactive: 1.66 | inactive: 2.16 | inactive: 1.9
21 | YPPTHYIRRVP [SLC4A11_Y820] | inactive: 0.389 | inactive: 0.365 | inactive: 0.412 | inactive: 0.364 | inactive: 0.341 | inactive: 0.33
22 | EHFSFYGMKAV [SLC15A2_Y61_R57H_YF] | inactive: 0.839 | inactive: 0.802 | inactive: 0.668 | inactive: 0.764 | inactive: 0.946 | inactive: 0.964
23 | TQFWRYFAGNL [SLC25A5_Y112_L111R] | inactive: 0.677 | inactive: 0.681 | inactive: 0.666 | inactive: 0.703 | inactive: 0.681 | inactive: 0.874
24 | IYLGAYDRFLP [SLC22A5_Y486_V481I] | inactive: 1.73 | inactive: 1.95 | inactive: 1.61 | inactive: 1.85 | inactive: 1.48 | inactive: 1.11
25 | LRSKQYLRNPP [SHC1_Y315_F312S] | inactive: 0.69 | inactive: 0.487 | inactive: 0.474 | inactive: 0.493 | inactive: 0.466 | inactive: 0.49
26 | LLREWYLQDPY [SIX3_Y225] | inactive: 2.01 | inactive: 2.08 | inactive: 2.01 | inactive: 1.81 | inactive: 2.1 | inactive: 2.03
27 | RGVTHYILQTF [SLC39A4_Y359] | active: 3.32 | active: 3.26 | active: 3.84 | inactive: 3.1 | inactive: 2.57 | inactive: 3.19
28 | STEAIYRRFSK [SH3PXD2B_Y42_YF] | inactive: 0.179 | inactive: 0.124 | inactive: 0.147 | inactive: 0.0515 | inactive: 0.211 | inactive: 0.341
29 | LRSRVYEVPVE [SLC26A3_Y756_N753S] | inactive: 0.589 | inactive: 0.584 | inactive: 0.764 | inactive: 0.691 | inactive: 0.805 | inactive: 0.694
30 | ELAINYQEQAS [SLC9A9_Y591] | inactive: 0.513 | inactive: 0.62 | inactive: 0.71 | inactive: 0.576 | inactive: 0.559 | inactive: 0.849
31 | ALVFLSFCIIF [SIGLEC12_Y494_Y494S] | inactive: 1.13 | inactive: 0.984 | inactive: 1.02 | inactive: 0.896 | inactive: 1.02 | inactive: 1.1
32 | SQSKGYRPKLY [SIPA1L3_Y1376_G1371S] | inactive: 0.417 | inactive: 0.534 | inactive: 0.526 | inactive: 0.422 | inactive: 0.386 | inactive: 0.318
33 | DSYSSYCNAVA [SLC20A2_Y436] | inactive: 0.794 | inactive: 0.708 | inactive: 0.556 | inactive: 0.499 | inactive: 0.635 | inactive: 0.438
34 | THEVRYISAGQ [SLCO4A1_Y77_V78I] | inactive: 0.666 | inactive: 0.813 | inactive: 0.731 | inactive: 0.704 | inactive: 0.654 | inactive: 0.959
35 | SAPDSYIRIGN [SLC38A4_Y27_G29R] | inactive: 0.786 | inactive: 0.609 | inactive: 0.772 | inactive: 0.679 | inactive: 0.752 | inactive: 0.613
36 | YIILIYAMKKK [SLCO1B1_Y645] | inactive: 2.01 | inactive: 1.62 | inactive: 1.38 | inactive: 2.01 | inactive: 2.19 | inactive: 1.2
37 | IFRAAYFGVFD [SLC25A4_Y191_YF] | inactive: 1.21 | inactive: 1.26 | inactive: 1.03 | inactive: 0.964 | inactive: 1.18 | inactive: 0.987
